The test system of one test is HSkMC. Nature of the test: cytotoxicity call (relative viability < 0.9). The note with it: 10 µM.
Another test relates to HepG2. Nature of the test: cytotoxicity call (relative viability < 0.9). To be noted: 10 µM.
In another test the test system is S. aureus RN4220. Nature of the test: growth inhibition call (relative growth <= 0.2). The note with it: 50 µM.

Some of the results follow.

For `Cc1noc(C)c1S(=O)(=O)N(C)C[C@H]1Oc2c(NS(=O)(=O)c3ccc(F)cc3)cccc2C(=O)N([C@@H](C)CO)C[C@H]1C`, the cytotoxicity call in the test on HSkMC and in the test on HepG2 was “inactive” throughout. Moreover, the growth inhibition call in the test with S. aureus RN4220 was “inactive”.
As to `O=C(O)C1=CCNCC1`, the cytotoxicity call in the test on HSkMC and in the test on HepG2 was “inactive” each time. In the test on S. aureus RN4220, the growth inhibition call was “inactive”.
Turning to `Cc1noc(C)c1S(=O)(=O)Nc1ccc2c(c1)C(=O)N([C@H](C)CO)C[C@@H](C)[C@H](CN(C)S(=O)(=O)c1cn(C)cn1)OCCCC[C@@H](C)O2`, the cytotoxicity call with HSkMC and in the test on HepG2 was “inactive” each time. Also, in the test with S. aureus RN4220, the growth inhibition call was “inactive”.
For the compound `C[C@@H]1CN([C@@H](C)CO)C(=O)c2cc(NC(=O)NC3CCCCC3)ccc2O[C@@H](C)CCCCO[C@H]1CN(C)C(=O)c1ccccc1`, the cytotoxicity call with HSkMC and in the test with HepG2 was “inactive” throughout. Besides, the growth inhibition call with S. aureus RN4220 was “inactive”.
In the case of `C[C@@H]1CN([C@H](C)CO)C(=O)c2c(c3ccccc3n2C)-c2ccccc2CO[C@H]1CN(C)C(=O)c1ccc(F)cc1`, the cytotoxicity call with HSkMC and in the test on HepG2 was “inactive” each time. The growth inhibition call in the test with S. aureus RN4220 is “inactive”.
Regarding `COc1ccc(NC(=O)Nc2ccc3c(c2)CC(=O)N([C@@H](C)CO)C[C@@H](C)[C@H](CN(C)Cc2ccc(Oc4ccccc4)cc2)O3)cc1`, the cytotoxicity call in the test with HSkMC and in the test on HepG2 was “active” throughout. Also, in the test on S. aureus RN4220, the growth inhibition call was “inactive”.
Regarding `O=C(C[C@@H]1CC[C@@H]2[C@H](COC[C@@H](O)CN2S(=O)(=O)c2cccc(Cl)c2)O1)NCc1ccncn1`, the cytotoxicity call in the test on HSkMC and with HepG2 was “inactive” throughout. Also, in the test with S. aureus RN4220, the growth inhibition call is “inactive”.
Regarding `CCCCCCCCCCOc1cc2c(O)c(C(=O)OCC)cnc2cc1OCC`, the cytotoxicity call with HSkMC and in the test with HepG2 was “inactive” throughout. Also, the growth inhibition call with S. aureus RN4220 is “inactive”.
`FC(F)Oc1cccc2cccnc12`: the cytotoxicity call with HSkMC and with HepG2 was “inactive” throughout. Moreover, the growth inhibition call with S. aureus RN4220 was “inactive”.
For `C[C@H](CO)N1C[C@H](C)[C@@H](CN(C)C(=O)Nc2ccccc2)Oc2ccc(NC(=O)Cn3cnnn3)cc2CC1=O`, the cytotoxicity call in the test on HSkMC (human skeletal muscle cells) and in the test with HepG2 was “inactive” in each case. Also, the growth inhibition call in the test on S. aureus RN4220 is “inactive”.

Values taken from the antibiotic and cytotoxicity screens of Wong et al. (2023).
